Assay results taken from patent publication US8106205B2, “N[S(4-aryl-triazol-3-yl)α-mercaptoacetyl]p-amino benzoic acids as HIV reverse transcriptase inhibitors” (priority 2004, dated 2012).
pEC50, pIC50: −log10 of the molar value.

test system: Y188L mutant HIV; assay: microbe, parasite or virus in culture; conditions: Human immunodeficiency virus 1, read-out: EC50 Y188L
Source text: (§1) With respect to suitable concentrations of contemplated compounds in pharmaceutical compositions, it should be appreciated that a person of ordinary skill in the art can readily adjust the amount of the compound to achieve inhibition of the reverse transcriptase and/or HIV replication. […] Alternatively, inhibition of the reverse transcriptase may be monitored in vivo using RT-PCR to determine the amount of copies of viral DNA and/or RNA in blood or lymph nodes (containing HIV infected cells). It is generally contemplated that suitable concentrations will achieve a serum concentration of between 1 nM and 100 uM, and in some cases between 0.01 nM and 1 nM).
(§2) Compounds of the invention were tested against the wild-type and four mutant HIV reverse transcriptases. The results are listed in Table 1 and Table 2 as EC50 (nM) and IC50 (nM). In Tables 1 and 2, A represents <50 nM, B is between 50 and 100 nM, and C is >100 nM. ND is not determined.

Row | Structure (SMILES) | pEC50
1 | Cc1cc(C)c(-n2c(SCC(=O)Nc3ccc(S(N)(=O)=O)cc3Cl)nnc2C(F)(F)F)c2c1CCCC2 [Compound 54] | > 7.30
2 | CCCC(=O)NS(=O)(=O)c1ccc(NC(=O)CSc2nnc(Br)n2-c2ccc(C3CC3)c3ccccc23)c(Cl)c1 [Compound 58] | > 7.30
3 | CC(Sc1nnc(Br)n1-c1ccc(C2CC2)c2ccccc12)C(=O)Nc1ccc(S(N)(=O)=O)cc1Cl (centres unmarked) [Compound 44] | < 7.00
4 | COCCC(=O)NS(=O)(=O)c1ccc(NC(=O)CSc2nnc(Br)n2-c2ccc(C3CC3)c3ccccc23)c(Cl)c1 [Compound 67] | < 7.00
5 | NS(=O)(=O)c1ccc(NC(=O)CSc2nnc(Br)n2-c2ccc(C3CC3)cc2)c(Cl)c1 [Compound 46] | < 7.00
6 | Cc1cc(S(N)(=O)=O)ccc1NC(=O)CSc1nnc(Br)n1-c1ccc(C2CCC2)c2ccccc12 [Compound 72] | > 7.30
7 | NS(=O)(=O)c1ccc(NC(=O)CSc2nnc(Br)n2-c2ccc(C3CC3)cc2OC(F)(F)F)c(Cl)c1 [Compound 66] | 7.00 to 7.30
8 | N#Cc1cccc2c(-n3c(SCC(=O)Nc4ccc(S(N)(=O)=O)cc4Cl)nnc3C(F)F)cccc12 [Compound 76] | < 7.00
9 | Cc1cc(C2CC2)cc(Cl)c1-n1c(Br)nnc1SCC(=O)Nc1ccc(S(N)(=O)=O)cc1Cl [Compound 70] | > 7.30

same assay, conditions: Human immunodeficiency virus 1, read-out: EC50 Y188L (nM)

Row | Structure (SMILES) | EC50 [nM]
10 | Cc1cc(C2CC2)cc(Cl)c1-n1c(Br)nnc1SCC(=O)Nc1ccc(C(=O)O)cc1Cl [Compound 20] | < 50
11 | COc1ccc2c(C)ccc(-n3c(Br)nnc3SCC(=O)Nc3ccc(C(=O)O)cc3Cl)c2c1 [Compound 15] | < 50

same assay, conditions: Table 2, Y188L mutant; read-out: EC50 Y188L

Row | Structure (SMILES) | pEC50
12 | CCCCCC(=O)NS(=O)(=O)c1ccc(NC(=O)CSc2nnc(Br)n2-c2ccc(C3CC3)c3ccccc23)c(Cl)c1 [Compound 75] | < 7.00
13 | N[C@@H](CC(=O)NS(=O)(=O)c1ccc(NC(=O)CSc2nnc(Cl)n2-c2ccc(C3CC3)c3ccccc23)c(Cl)c1)C(=O)O [Compound 59] | > 7.30
14 | N[C@@H](CCC(=O)NS(=O)(=O)c1ccc(NC(=O)CSc2nnc(Br)n2-c2ccc(C3CC3)c3ccccc23)c(Cl)c1)C(=O)O [Compound 64] | > 7.30
15 | CCCCC(=O)NS(=O)(=O)c1ccc(NC(=O)CSc2nnc(Br)n2-c2ccc(C3CC3)c3ccccc23)c(Cl)c1 [Compound 74] | < 7.00
16 | Cc1ccc2c(C)ccc(-n3c(Br)nnc3SCC(=O)Nc3ccc(S(N)(=O)=O)cc3Br)c2c1 [Compound 52] | > 7.30
17 | NCCC(N)C(=O)NS(=O)(=O)c1ccc(NC(=O)CSc2nnc(Br)n2-c2ccc(C3CC3)c3ccccc23)c(Cl)c1 (centres unmarked) [Compound 62] | > 7.30

test system: Y181C mutant HIV; assay: microbe, parasite or virus in culture; conditions: Human immunodeficiency virus 1, read-out: EC50 Y181C
Source text: as §1, §2

Row | Structure (SMILES) | pEC50
18 | Cc1cc(C)c(-n2c(SCC(=O)Nc3ccc(S(N)(=O)=O)cc3Cl)nnc2C(F)(F)F)c2c1CCCC2 [Compound 54] | > 7.30
19 | CCCC(=O)NS(=O)(=O)c1ccc(NC(=O)CSc2nnc(Br)n2-c2ccc(C3CC3)c3ccccc23)c(Cl)c1 [Compound 58] | > 7.30
20 | CC(Sc1nnc(Br)n1-c1ccc(C2CC2)c2ccccc12)C(=O)Nc1ccc(S(N)(=O)=O)cc1Cl (centres unmarked) [Compound 44] | 7.00 to 7.30
21 | COCCC(=O)NS(=O)(=O)c1ccc(NC(=O)CSc2nnc(Br)n2-c2ccc(C3CC3)c3ccccc23)c(Cl)c1 [Compound 67] | > 7.30
22 | NS(=O)(=O)c1ccc(NC(=O)CSc2nnc(Br)n2-c2ccc(C3CC3)cc2)c(Cl)c1 [Compound 46] | > 7.30
23 | Cc1cc(S(N)(=O)=O)ccc1NC(=O)CSc1nnc(Br)n1-c1ccc(C2CCC2)c2ccccc12 [Compound 72] | > 7.30
24 | NS(=O)(=O)c1ccc(NC(=O)CSc2nnc(Br)n2-c2ccc(C3CC3)cc2OC(F)(F)F)c(Cl)c1 [Compound 66] | > 7.30
25 | N#Cc1cccc2c(-n3c(SCC(=O)Nc4ccc(S(N)(=O)=O)cc4Cl)nnc3C(F)F)cccc12 [Compound 76] | > 7.30
26 | Cc1cc(C2CC2)cc(Cl)c1-n1c(Br)nnc1SCC(=O)Nc1ccc(S(N)(=O)=O)cc1Cl [Compound 70] | > 7.30

same assay, conditions: Human immunodeficiency virus 1, read-out: EC50 Y181C (nM)

Row | Structure (SMILES) | EC50 [nM]
27 | Cc1cc(C2CC2)cc(Cl)c1-n1c(Br)nnc1SCC(=O)Nc1ccc(C(=O)O)cc1Cl [Compound 20] | < 50
28 | COc1ccc2c(C)ccc(-n3c(Br)nnc3SCC(=O)Nc3ccc(C(=O)O)cc3Cl)c2c1 [Compound 15] | < 50

same assay, conditions: Table 2, Y181C mutant; read-out: EC50 Y181C

Row | Structure (SMILES) | pEC50
29 | CCCCCC(=O)NS(=O)(=O)c1ccc(NC(=O)CSc2nnc(Br)n2-c2ccc(C3CC3)c3ccccc23)c(Cl)c1 [Compound 75] | > 7.30
30 | N[C@@H](CC(=O)NS(=O)(=O)c1ccc(NC(=O)CSc2nnc(Cl)n2-c2ccc(C3CC3)c3ccccc23)c(Cl)c1)C(=O)O [Compound 59] | > 7.30
31 | N[C@@H](CCC(=O)NS(=O)(=O)c1ccc(NC(=O)CSc2nnc(Br)n2-c2ccc(C3CC3)c3ccccc23)c(Cl)c1)C(=O)O [Compound 64] | > 7.30
32 | CCCCC(=O)NS(=O)(=O)c1ccc(NC(=O)CSc2nnc(Br)n2-c2ccc(C3CC3)c3ccccc23)c(Cl)c1 [Compound 74] | > 7.30
33 | Cc1ccc2c(C)ccc(-n3c(Br)nnc3SCC(=O)Nc3ccc(S(N)(=O)=O)cc3Br)c2c1 [Compound 52] | > 7.30
34 | NCCC(N)C(=O)NS(=O)(=O)c1ccc(NC(=O)CSc2nnc(Br)n2-c2ccc(C3CC3)c3ccccc23)c(Cl)c1 (centres unmarked) [Compound 62] | > 7.30

molecular target: T1, Y188L RT (Human immunodeficiency virus type 1 group M subtype B, UniProt P04585, Y775L); assay: biochemical; set-up: species or system HIV; conditions: not given
T1 construct: tested against the wild-type and four mutant HIV reverse transcriptases
Method: as §2

Row | Structure (SMILES) | pIC50
35 | Cc1cc(C)c(-n2c(SCC(=O)Nc3ccc(S(N)(=O)=O)cc3Cl)nnc2C(F)(F)F)c2c1CCCC2 [Compound 54] | < 7.00
36 | CCCC(=O)NS(=O)(=O)c1ccc(NC(=O)CSc2nnc(Br)n2-c2ccc(C3CC3)c3ccccc23)c(Cl)c1 [Compound 58] | < 7.00
37 | CC(Sc1nnc(Br)n1-c1ccc(C2CC2)c2ccccc12)C(=O)Nc1ccc(S(N)(=O)=O)cc1Cl (centres unmarked) [Compound 44] | < 7.00
38 | Cc1cc(C2CC2)cc(Cl)c1-n1c(Br)nnc1SCC(=O)Nc1ccc(C(=O)O)cc1Cl [Compound 20] | < 7.00
39 | COCCC(=O)NS(=O)(=O)c1ccc(NC(=O)CSc2nnc(Br)n2-c2ccc(C3CC3)c3ccccc23)c(Cl)c1 [Compound 67] | < 7.00
40 | COc1ccc2c(C)ccc(-n3c(Br)nnc3SCC(=O)Nc3ccc(C(=O)O)cc3Cl)c2c1 [Compound 15] | > 7.30
41 | NS(=O)(=O)c1ccc(NC(=O)CSc2nnc(Br)n2-c2ccc(C3CC3)cc2)c(Cl)c1 [Compound 46] | < 7.00
42 | Cc1cc(S(N)(=O)=O)ccc1NC(=O)CSc1nnc(Br)n1-c1ccc(C2CCC2)c2ccccc12 [Compound 72] | < 7.00
43 | NS(=O)(=O)c1ccc(NC(=O)CSc2nnc(Br)n2-c2ccc(C3CC3)cc2OC(F)(F)F)c(Cl)c1 [Compound 66] | < 7.00
44 | N#Cc1cccc2c(-n3c(SCC(=O)Nc4ccc(S(N)(=O)=O)cc4Cl)nnc3C(F)F)cccc12 [Compound 76] | < 7.00
45 | Cc1cc(C2CC2)cc(Cl)c1-n1c(Br)nnc1SCC(=O)Nc1ccc(S(N)(=O)=O)cc1Cl [Compound 70] | < 7.00

same assay, conditions: Table 2, Y188L RT; read-out: IC50 Y188L RT

Row | Structure (SMILES) | pIC50
46 | CCCCCC(=O)NS(=O)(=O)c1ccc(NC(=O)CSc2nnc(Br)n2-c2ccc(C3CC3)c3ccccc23)c(Cl)c1 [Compound 75] | < 7.00
47 | N[C@@H](CC(=O)NS(=O)(=O)c1ccc(NC(=O)CSc2nnc(Cl)n2-c2ccc(C3CC3)c3ccccc23)c(Cl)c1)C(=O)O [Compound 59] | < 7.00
48 | N[C@@H](CCC(=O)NS(=O)(=O)c1ccc(NC(=O)CSc2nnc(Br)n2-c2ccc(C3CC3)c3ccccc23)c(Cl)c1)C(=O)O [Compound 64] | < 7.00
49 | CCCCC(=O)NS(=O)(=O)c1ccc(NC(=O)CSc2nnc(Br)n2-c2ccc(C3CC3)c3ccccc23)c(Cl)c1 [Compound 74] | < 7.00
50 | Cc1ccc2c(C)ccc(-n3c(Br)nnc3SCC(=O)Nc3ccc(S(N)(=O)=O)cc3Br)c2c1 [Compound 52] | 7.00 to 7.30
51 | NCCC(N)C(=O)NS(=O)(=O)c1ccc(NC(=O)CSc2nnc(Br)n2-c2ccc(C3CC3)c3ccccc23)c(Cl)c1 (centres unmarked) [Compound 62] | < 7.00

molecular target: T2, Y181C RT (Human immunodeficiency virus type 1 group M subtype B, UniProt P04585, Y768C); assay: biochemical; set-up: species or system HIV; conditions: not given
T2 construct: tested against the wild-type and four mutant HIV reverse transcriptases
Method: as §2

Row | Structure (SMILES) | pIC50
52 | Cc1cc(C)c(-n2c(SCC(=O)Nc3ccc(S(N)(=O)=O)cc3Cl)nnc2C(F)(F)F)c2c1CCCC2 [Compound 54] | < 7.00
53 | CCCC(=O)NS(=O)(=O)c1ccc(NC(=O)CSc2nnc(Br)n2-c2ccc(C3CC3)c3ccccc23)c(Cl)c1 [Compound 58] | > 7.30
54 | CC(Sc1nnc(Br)n1-c1ccc(C2CC2)c2ccccc12)C(=O)Nc1ccc(S(N)(=O)=O)cc1Cl (centres unmarked) [Compound 44] | 7.00 to 7.30
55 | Cc1cc(C2CC2)cc(Cl)c1-n1c(Br)nnc1SCC(=O)Nc1ccc(C(=O)O)cc1Cl [Compound 20] | > 7.30
56 | COCCC(=O)NS(=O)(=O)c1ccc(NC(=O)CSc2nnc(Br)n2-c2ccc(C3CC3)c3ccccc23)c(Cl)c1 [Compound 67] | > 7.30
57 | COc1ccc2c(C)ccc(-n3c(Br)nnc3SCC(=O)Nc3ccc(C(=O)O)cc3Cl)c2c1 [Compound 15] | > 7.30
58 | NS(=O)(=O)c1ccc(NC(=O)CSc2nnc(Br)n2-c2ccc(C3CC3)cc2)c(Cl)c1 [Compound 46] | > 7.30
59 | Cc1cc(S(N)(=O)=O)ccc1NC(=O)CSc1nnc(Br)n1-c1ccc(C2CCC2)c2ccccc12 [Compound 72] | > 7.30
60 | NS(=O)(=O)c1ccc(NC(=O)CSc2nnc(Br)n2-c2ccc(C3CC3)cc2OC(F)(F)F)c(Cl)c1 [Compound 66] | > 7.30
61 | N#Cc1cccc2c(-n3c(SCC(=O)Nc4ccc(S(N)(=O)=O)cc4Cl)nnc3C(F)F)cccc12 [Compound 76] | < 7.00
62 | Cc1cc(C2CC2)cc(Cl)c1-n1c(Br)nnc1SCC(=O)Nc1ccc(S(N)(=O)=O)cc1Cl [Compound 70] | > 7.30

same assay, conditions: Table 2, Y181C RT; read-out: IC50 Y181C RT

Row | Structure (SMILES) | pIC50
63 | CCCCCC(=O)NS(=O)(=O)c1ccc(NC(=O)CSc2nnc(Br)n2-c2ccc(C3CC3)c3ccccc23)c(Cl)c1 [Compound 75] | > 7.30
64 | N[C@@H](CC(=O)NS(=O)(=O)c1ccc(NC(=O)CSc2nnc(Cl)n2-c2ccc(C3CC3)c3ccccc23)c(Cl)c1)C(=O)O [Compound 59] | > 7.30
65 | N[C@@H](CCC(=O)NS(=O)(=O)c1ccc(NC(=O)CSc2nnc(Br)n2-c2ccc(C3CC3)c3ccccc23)c(Cl)c1)C(=O)O [Compound 64] | > 7.30
66 | CCCCC(=O)NS(=O)(=O)c1ccc(NC(=O)CSc2nnc(Br)n2-c2ccc(C3CC3)c3ccccc23)c(Cl)c1 [Compound 74] | > 7.30
67 | Cc1ccc2c(C)ccc(-n3c(Br)nnc3SCC(=O)Nc3ccc(S(N)(=O)=O)cc3Br)c2c1 [Compound 52] | > 7.30
68 | NCCC(N)C(=O)NS(=O)(=O)c1ccc(NC(=O)CSc2nnc(Br)n2-c2ccc(C3CC3)c3ccccc23)c(Cl)c1 (centres unmarked) [Compound 62] | > 7.30
